According to PubChem BioAssay AID588342 (National Center for Advancing Translational Sciences (NCATS), 2011):
Screen size: about 360,000 compounds; about 25,000 (6.9%) were called active. The inconclusive results got no clear call from the source; some entries with a clear call stand among them for comparison. Calls come from the whole dose curve; as a rule, active = well fitted inhibition curve with a large enough effect; inconclusive = small, poorly fitted or top-dose-only effect; inactive = flat fitted curve, though single readings scatter. Potencies beside an inconclusive call are fits to weak or partial responses and may not hold up.
Note: nearly all actives have a fitted effect of over 55% in size.
Potency is the fitted concentration of half-maximal effect; tags give direction and shape of the fitted curve.
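Throughout, for activity change, negative = inhibition: plate controls were vehicle for no effect and reference inhibitor for full effect.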

Each molecule was assayed against Luciferin 4-monooxygenase (Photinus pyralis) (UniProt P08659) (assay: qHTS profiling assay for firefly luciferase inhibitor/activator using purifed enzyme and Km concentrations of substrates (counterscreen for miR-21 project)). Conditions: purified FLuc, luminescence inhibition; activity change, negative = inhibition: at 57.5 µM (top of the series).
UniProt P08659, sequence (P08659 whole entry, looked up): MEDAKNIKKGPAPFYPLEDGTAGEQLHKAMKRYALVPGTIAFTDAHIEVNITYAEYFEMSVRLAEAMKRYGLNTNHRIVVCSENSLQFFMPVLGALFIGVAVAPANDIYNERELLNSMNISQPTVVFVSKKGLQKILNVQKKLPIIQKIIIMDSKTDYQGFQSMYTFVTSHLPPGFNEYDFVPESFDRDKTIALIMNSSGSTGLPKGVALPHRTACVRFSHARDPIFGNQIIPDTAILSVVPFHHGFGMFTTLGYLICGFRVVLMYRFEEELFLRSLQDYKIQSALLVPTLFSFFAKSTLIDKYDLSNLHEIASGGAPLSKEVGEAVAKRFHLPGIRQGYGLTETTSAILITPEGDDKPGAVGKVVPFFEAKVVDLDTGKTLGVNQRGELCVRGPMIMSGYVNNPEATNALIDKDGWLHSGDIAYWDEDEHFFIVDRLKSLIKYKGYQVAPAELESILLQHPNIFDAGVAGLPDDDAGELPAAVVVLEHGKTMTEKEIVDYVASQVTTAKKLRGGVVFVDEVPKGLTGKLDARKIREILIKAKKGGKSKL
Method in brief: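 Purified P. pyralis luciferase, 10 nM final, with Km-level 10 uM D-luciferin and 10 uM ATP in 50 mM Tris acetate pH 7.5, 10 mM Mg acetate, 0.01% Tween-20, 0.05% BSA; 6-point qHTS titration about 60 µM downward; luminescence read.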
For Cc1cc(-c2nnc(CCC(=O)NCc3cc(F)cc(C(F)(F)F)c3)o2)no1, the Potency was inconclusive: 37.9 µM [inhibitor, partial curve, poor fit].
Cn1c(CNC(=O)c2ccccc2)nnc1SCC(=O)Nc1nccs1 was tested, and the Potency was inconclusive: 37.9 µM [inhibitor, single point].
With Cc1cc2cc(CNC(=O)c3cccc([N+](=O)[O-])c3)ccc2[nH]1 the Potency was inconclusive: 19 µM [inhibitor, partial curve].
Cc1ccc(NCc2n[nH]c(=S)n2-c2ccccc2)c(C)c1 was tested, and the Potency was inconclusive: 33.8 µM [inhibitor, partial curve, poor fit].
With COc1ccc(/C=N/Nc2ncnc3c2[nH]c2ccc(C)cc23)c(OC)c1OC the Potency was inconclusive: 1.9 µM [inhibitor, partial curve, poor fit].
For Cc1cccc(N=Cc2c(O)cc(C)oc2=O)c1, the Potency was inconclusive: 37.9 µM [inhibitor, single point].
For CC(C)CC(=O)Nc1ccc(C(=O)COC(=O)CN2C(=O)NC3(CCCCC3C)C2=O)cc1 (configuration not stated), the “activity change, negative = inhibition” value was inactive: -10.5%.
With Cc1ccc(Nc2nc(N)c([N+](=O)[O-])c(NCCO)n2)cc1 the Potency was inconclusive: 23.9 µM [inhibitor, partial curve].
With Cc1ccc(N=c2c([N+](=O)[O-])nn(-c3ccccc3)n2O)c(C)c1 the Potency was inconclusive: 30.1 µM [inhibitor, single point].
In the case of Cc1cc(C(C)(C)C)ccc1OCC(=O)N/N=C\c1c(C)n(C)n(-c2ccccc2)c1=O, the Potency is reported as inconclusive: 23.9 µM [inhibitor, partial curve].
With COc1ccc(-c2noc(CSc3nc(N)c(-c4ccccc4)c(=O)[nH]3)n2)cc1 the Potency was inconclusive: 26.9 µM [inhibitor, single point].
With Cc1ccc2oc(=O)c3cc(C(=O)NCCCN4C(C)CCCC4C)sc3c2c1 (configuration not stated) the “activity change, negative = inhibition” value was inactive: -0.588%.
With Nc1ncc(Br)cc1S(=O)(=O)NCCC(=O)N1CCN(c2ccccc2)CC1 the “activity change, negative = inhibition” value was inactive: 0.967%.
In the case of COC(=O)c1ccc(NC(=O)c2ccc(F)cc2)o1, the Potency is reported as inconclusive: 37.9 µM [inhibitor, partial curve, poor fit].
With Cc1cc(C(=O)Nc2ccc(S(=O)(=O)Nc3onc(C)c3C)cc2)cs1 the Potency was inconclusive: 26.9 µM [inhibitor, single point].
In the case of O=C(CSc1nnc(NC(=O)c2cccc(F)c2)s1)NC1CC1, the Potency is reported as active: 15.1 µM.
For O=C(CSc1nc2ccccc2n1S(=O)(=O)c1ccccc1)N1CCCCC1, the Potency was inconclusive: 37.9 µM [inhibitor, single point].
With O=C(c1cc2ccccc2oc1=O)N1CCOCC1 the Potency was active: 12 µM.
With Cc1ccc(N(CC(=O)N(C)Cc2ccccc2)S(C)(=O)=O)cc1C the “activity change, negative = inhibition” value was inactive: 2.09%.
For C/C(=N/Oc1nc(C)cc(C)n1)c1ccccc1, the Potency was inconclusive: 37.9 µM [inhibitor, single point].
In the case of S=C(N/N=C/c1cccs1)NC1CC2CCC1C2 (configuration not stated), the Potency is reported as inconclusive: 21.3 µM [inhibitor, partial curve, poor fit].
For COc1ccc(-c2cc(=O)[nH][nH]2)cc1OC, the Potency was inconclusive: 8.49 µM [inhibitor, partial curve, poor fit].
O=C(NCCCN1CCCCCC1)c1ccc2c(c1)sc1nc(-c3ccccc3)cn12 was tested, and the “activity change, negative = inhibition” value was inactive: -1.41%.
For COc1cc(NC(=O)N2CCNC2=O)cc(C(=O)Nc2cccc(C(F)(F)F)c2)c1, the Potency was inconclusive: 16.9 µM [inhibitor, partial curve].
With CCOc1ccc(NC(=S)N/N=C(\C)Cc2ccc(OC)cc2)cc1 the Potency was inconclusive: 23.9 µM [inhibitor, partial curve].
With Cc1nc2cc(-c3ccccc3)nn2c(C)c1CCC(=O)Nc1ccc(F)cc1F the Potency was inconclusive: 9.53 µM [inhibitor, partial curve, poor fit].
In the case of Cc1cccc(NC(=O)c2cc(-c3cc(Cl)ccc3O)n[nH]2)c1, the Potency is reported as inconclusive: 1.9 µM [inhibitor, full curve, poor fit].
In the case of Cc1cccc2sc(NC(=O)c3ccc(Cl)s3)nc12, the Potency is reported as inconclusive: 8.49 µM [inhibitor, partial curve].
With COc1ccc(/C=N/NC(=O)c2nnn(-c3nonc3N)c2-c2cccs2)cc1OC the Potency was active: 19 µM.
In the case of CCN(CC)C(=O)CC(c1ccc2c(c1)OCO2)c1c(OC)cc(OC)c2c(-c3ccccc3)cc(=O)oc12 (configuration not stated), the Potency is reported as inconclusive: 37.9 µM [inhibitor, partial curve, poor fit].
For Cc1ccccc1OCc1nc2ccccc2c(=O)n1/N=C/c1cn[nH]c1-c1ccccc1, the “activity change, negative = inhibition” value was inactive: -10.8%.
For O=C(O)COc1ccccc1/C=N/Nc1ccc(S(=O)(=O)Nc2ccc(Cl)cc2)cc1[N+](=O)[O-], the Potency was inconclusive: 37.9 µM [inhibitor, single point].
For COc1ccc(-c2nc(CSCC(=O)N3CCN(c4cc(Cl)ccc4C)CC3)c(C)o2)cc1, the Potency was inconclusive: 12 µM [inhibitor, partial curve, poor fit].
In the case of Cc1ccc(-c2nc3ncccn3c2Nc2ccc3c(c2)OCCO3)cc1, the Potency is reported as inconclusive: 26.9 µM [inhibitor, single point].
With O=C(COC(=O)c1cccc(-n2cnnn2)c1)c1ccccc1 the Potency was inconclusive: 23.9 µM [inhibitor, partial curve].
COc1cccc2c1cc1c(=O)n(CC(=O)N3CCN(c4ccccc4)CC3)nc(C)n12 was tested, and the “activity change, negative = inhibition” value was inactive: -1.6%.
With Cn1nnnc1Sc1ncnc2scc(-c3ccccc3Br)c12 the Potency was inconclusive: 30.1 µM [inhibitor, partial curve, poor fit].
With Cc1ccc(NCc2n[nH]c(=S)n2Cc2ccccc2)cc1Cl the Potency was inconclusive: 26.9 µM [inhibitor, partial curve, poor fit].
In the case of CCOc1ccc(S(=O)(=O)Nc2ccc(C(=O)NN)cc2)cc1, the Potency is reported as inconclusive: 19 µM [inhibitor, partial curve, poor fit].
In the case of CC(=O)c1c(C)[nH]c(C(=O)OCc2nc3ccsc3c(=O)[nH]2)c1C, the Potency is reported as inconclusive: 21.3 µM [inhibitor, single point].
In the case of COC(=O)c1ccc2c(=O)n(CCCCCC(=O)NCCc3ccc(Cl)cc3)c(=O)[nH]c2c1, the “activity change, negative = inhibition” value is reported as inactive: -5.63%.
With Cc1ccc(C(=O)CSc2nnc(C3CC3)n2C2CC2)s1 the Potency was active: 19 µM.
With COc1ccc(CC(=O)NCc2nnc(SCC(=O)Nc3ncc(C)s3)n2C)cc1 the Potency was inconclusive: 37.9 µM [inhibitor, partial curve, poor fit].
With Cc1cccc(S(=O)(=O)N2CCn3cccc3C2C)c1 (configuration not stated) the “activity change, negative = inhibition” value was inactive: 0.0753%.
With CS(=O)(=O)N1CCc2cc(C(=O)Nc3cccc([N+](=O)[O-])c3)ccc21 the Potency was inconclusive: 37.9 µM [inhibitor, partial curve, poor fit].
With Clc1cccc2sc(N3CCCCC3)nc12 the Potency was active: 23.9 µM.
For O=C(CCCN1C(=O)c2cccc3cccc(c23)C1=O)N1CCc2ccccc2C1, the Potency was inconclusive: 37.9 µM [inhibitor, partial curve, poor fit].
With COc1ccc(C(=O)Nc2cc3c(cc2N2CCCCC2)n(C)c(=O)n3C)cc1OC the “activity change, negative = inhibition” value was inactive: -1.13%.
Cc1cccc(NC(=O)CSc2nc(-c3ccccc3)cc(=O)[nH]2)c1C was tested, and the Potency was inconclusive: 21.3 µM [inhibitor, partial curve, poor fit].
In the case of CCc1ccc(/C=C2\Oc3ccc(C(=O)OC)cc3C2=O)cc1, the Potency is reported as inconclusive: 19 µM [inhibitor, partial curve, poor fit].
With O=C(NC(=S)N1CCCCC1CO)c1cc(Br)ccc1Cl (configuration not stated) the “activity change, negative = inhibition” value was inactive: 5.77%.
With NC(=O)COc1ccc(/C=N\NC(=O)c2ccc(-c3ccccc3)cc2)cc1 the “activity change, negative = inhibition” value was inactive: 1.63%.
O/N=C/c1ccc(OCc2ccccc2F)c(Cl)c1 was tested, and the Potency was active: 2.69 µM.
In the case of COc1ccc(Cl)cc1S(=O)(=O)NCc1ccc2c(c1)CCN2C(=O)c1cccc(C)c1, the “activity change, negative = inhibition” value is reported as inactive: 2.92%.
For Cc1cc(C(=O)CSc2nnnn2C)c(C)n1-c1cccc(F)c1, the Potency was active: 7.57 µM.
For COc1ccc(NC(=O)C(=O)N/N=C(\C)CC(=O)Nc2cc(C)ccn2)c(OC)c1, the Potency was inconclusive: 37.9 µM [inhibitor, partial curve, poor fit].
With Cc1occc1-c1nnc(SCC(=O)c2ccc3c(c2)OCCO3)n1CC1CCCO1 (configuration not stated) the Potency was inconclusive: 26.9 µM [inhibitor, single point].
With O=[N+]([O-])c1cc(-c2cnc3ccccc3n2)ccc1Oc1ccc(Br)cc1 the Potency was inconclusive: 15.1 µM [inhibitor, partial curve, poor fit].
With COc1ccc(-c2cc(C(=O)OC3CCOC3=O)c3ccccc3n2)cc1 (configuration not stated) the Potency was active: 7.57 µM.
In the case of O=C(Nc1ccc2nc(SCC(=O)N3CCOCC3)sc2c1)c1cccc(Br)c1, the Potency is reported as inconclusive: 13.5 µM [inhibitor, partial curve, poor fit].
For CC(=O)c1cccc(NC(=S)NC(=O)c2cccc(Cl)c2)c1, the Potency was active: 21.3 µM.
For CC(C)(C)c1ccc(C(=O)NCC(c2cccnc2)N2CCc3ccccc3C2)cc1 (configuration not stated), the Potency was inconclusive: 3.01 µM [inhibitor, full curve].
CCOC(=O)c1c(S(=O)(=O)NCC(=O)Nc2cc(C)ccn2)c(C)n(C)c1C was tested, and the “activity change, negative = inhibition” value was inactive: -1.22%.
In the case of Cc1cc(=O)oc2c(C)c(OCC(=O)Nc3cccnc3)ccc12, the Potency is reported as inconclusive: 21.3 µM [inhibitor, single point].
For COc1ccc(OC(=O)c2nc(SCc3ccccc3F)ncc2Cl)cc1, the “activity change, negative = inhibition” value was inactive: 1.36%.
Cc1cc(C)n(Cc2ccc(C(=O)Nc3cccc(Br)c3)o2)n1 was tested, and the Potency was inconclusive: 30.1 µM [inhibitor, partial curve, poor fit].
With COc1ccc2nc(SCCC(=O)O)cc(C)c2c1 the Potency was inconclusive: 37.9 µM [inhibitor, single point].
